Consider five cell lines from the supplement of paper PMC4967469.

Holding throughout (assay): Viability of human cancer cell lines after 72 h of drug (GDSC screen)
Compound in one test: O=c1cc(-c2cccc3c2Sc2ccccc2S3)oc(N2CCOCC2)c1 [KU-55933]
Particulars: top dose 10 µM. As to the method: (§1)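 Human cancer cell lines in 384-well plates, medium with 10% serum, drug for 72 h over a 256-fold dose range (nine 2-fold or five 4-fold steps up to the top dose). Adherent lines were fixed and stained with the nucleic acid dye Syto60, suspension lines read with resazurin; signal relative to control wells, capped at 0 and 100%. One two-parameter sigmoid per drug and line, fitted in a mixed model over all curves with the slope shared within a line.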

Compound in a further test: Cc1ccc(F)c(NC(=O)Nc2ccc(-c3cccc4[nH]nc(N)c34)cc2)c1 [ABT-869]
The note with it: top dose 1.024 µM; top dose inferred. As to the method: as §1

Compound in another test: COc1cc2ncnc(-n3nc(-c4ccccn4)nc3N)c2cc1OC [CP466722]
The note with it: top dose 16 µM; top dose inferred. As to the method: as §1

Compound in another test: C=CC(=O)Nc1cc(-n2c(=O)ccc3cnc4ccc(-c5cn[nH]c5)cc4c32)ccc1C [QL-X-138]
The note with it: top dose 10.24 µM; top dose inferred. As to the method:
as §1

Compound in a further test: Cc1cnc(-c2cnc(NCCNc3ccc(C#N)cn3)nc2-c2ccc(Cl)cc2Cl)[nH]1 [CHIR-99021]
As for the experimental part: as §1

Compound in a further test: COc1cc(N2CCC(O)CC2)ccc1Nc1cc(Nc2ccccc2S(=O)(=O)C(C)C)c2cc[nH]c2n1 [MPS-1-IN-1]
The note with it: top dose 20 µM; top dose inferred. As to the method:
as §1

Compound in a further test: COc1cc(O)c2c(c1)/C=C/C[C@H](O)[C@H](O)C(=O)/C=C\C[C@H](C)OC2=O [(5Z)-7-Oxozeaenol]
The note with it: top dose 10 µM; top dose inferred. As to the method: as §1

Compound in a further test: C/C=C(/C)C(=O)O[C@H]1C(C)=C2[C@H]([C@@H]1OC(=O)CCCCCCC)[C@@](C)(OC(C)=O)C[C@H](OC(=O)CCC)[C@@]1(O)[C@H]2OC(=O)[C@@]1(C)O [Thapsigargin]
The note with it: top dose 0.512 µM; top dose inferred. As to the method: as §1

Compound in the next test: CCn1c(-c2nonc2N)nc2cnc(Oc3cccc(NC(=O)c4ccc(OCCN5CCOCC5)cc4)c3)cc21 [GSK269962A]
Particulars: top dose 5 µM; screen: GDSC drug entry 1192; top dose inferred. As to the method:
as §1

Compound in the next test: COc1nc(C)cnc1NS(=O)(=O)c1cccnc1-c1ccc(-c2nnco2)cc1 [Zibotentan]
The note with it: top dose 20 µM; top dose inferred. As to the method: as §1

Compound in another test: C[C@]1(c2nc3c(C(N)=O)cccc3[nH]2)CCCN1 [ABT-888]
The note with it: top dose 5 µM; top dose inferred. As to the method: as §1

Setting [1] is: top dose 2.56 µM, screen: GDSC drug entry 154.
The mark [2] stands for this setting: top dose 10 µM, screen: GDSC drug entry 1241, top dose inferred.

Lines with a small IC50 respond at low doses; a fit beyond the top or the lowest dose is shown as a bound at that dose. The AUC spans the tested range (256-fold, ending at the top dose) of the same fit: 1 means no effect, lower means more sensitive. For part of these data: The top dose, if marked as inferred, comes from the curve model; the source does not state it. For part of these data: Drugs with an entry number were screened twice under separate entries, and the two screens often disagree.

In general, IC50 refers to the concentration that inhibits the measured activity by half. In the case of SK-HEP-1 (liver, adherent), the AUC with KU-55933 is 0.981; in the test with ABT-869 it was 0.982; with CP466722 it was 0.869; in the test with QL-X-138 it was 0.989; in the test with CHIR-99021 (setting [1]) it was 0.989; in the test with CHIR-99021 (setting [2]), 0.901. Besides, the AUC was 0.983 with MPS-1-IN-1; 0.409 in the test with (5Z)-7-Oxozeaenol; 0.204 with Thapsigargin; 0.668 with GSK269962A; 0.989 with Zibotentan; 0.989 with ABT-888. For the same cell line, the IC50 was greater than 10 µM with KU-55933; greater than 1.02 µM in the test with ABT-869; 13.1 µM with CP466722; greater than 10.2 µM with QL-X-138; greater than 2.56 µM in the test with CHIR-99021 (setting [1]); greater than 10 µM with CHIR-99021 (setting [2]). Moreover, the IC50 is greater than 20 µM with MPS-1-IN-1; 0.359 µM with (5Z)-7-Oxozeaenol; 0.00463 µM with Thapsigargin; 0.884 µM in the test with GSK269962A; greater than 20 µM with Zibotentan; greater than 5 µM with ABT-888.

In the case of SK-N-AS (neuroblastoma, adherent), the AUC with KU-55933 is 0.958; with ABT-869, 0.981; with CP466722 it was 0.751; with QL-X-138, 0.652; with CHIR-99021 (setting [1]), 0.966; in the test with CHIR-99021 (setting [2]), 0.978. Besides, the AUC in the test with MPS-1-IN-1 amounted to 0.926; with (5Z)-7-Oxozeaenol it was 0.369; with Thapsigargin it was 0.532; with GSK269962A, 0.969; with Zibotentan it was 0.983; in the test with ABT-888 it was 0.983. The IC50 with KU-55933 was greater than 10 µM; with ABT-869, greater than 1.02 µM; in the test with CP466722, 6.02 µM; with QL-X-138, 1.81 µM; with CHIR-99021 (setting [1]), greater than 2.56 µM; with CHIR-99021 (setting [2]), greater than 10 µM. In addition, the IC50 with MPS-1-IN-1 is greater than 20 µM; in the test with (5Z)-7-Oxozeaenol it was 0.256 µM; with Thapsigargin, 0.0396 µM; with GSK269962A it was greater than 5 µM; with Zibotentan, greater than 20 µM; with ABT-888 it was greater than 5 µM.

For SK-N-SH (neuroblastoma, adherent), the AUC in the test with KU-55933 was determined as 0.971; with ABT-869, 0.987; with CP466722, 0.824; with QL-X-138 it was 0.921; with CHIR-99021 (setting [1]) it was 0.978; in the test with CHIR-99021 (setting [2]), 0.911. For the same cell line, the AUC with MPS-1-IN-1 came out at 0.732; in the test with (5Z)-7-Oxozeaenol, 0.504; with Thapsigargin it was 0.393; with GSK269962A it was 0.78; in the test with Zibotentan, 0.981; with ABT-888, 0.978. Moreover, the IC50 in the test with KU-55933 is greater than 10 µM; with ABT-869, greater than 1.02 µM; in the test with CP466722, 9.36 µM; with QL-X-138, greater than 10.2 µM; in the test with CHIR-99021 (setting [1]), greater than 2.56 µM; in the test with CHIR-99021 (setting [2]), greater than 10 µM. The IC50 in the test with MPS-1-IN-1 is 5.69 µM; with (5Z)-7-Oxozeaenol, 0.641 µM; with Thapsigargin, 0.0163 µM; with GSK269962A, 2.04 µM; in the test with Zibotentan, greater than 20 µM; in the test with ABT-888, greater than 5 µM.

As for SK-OV-3 (ovary, adherent), the AUC with KU-55933 is 0.981; in the test with ABT-869, 0.962; with CP466722, 0.697; with QL-X-138, 0.76; with CHIR-99021 (setting [1]) it was 0.876; with CHIR-99021 (setting [2]), 0.92. Also, the AUC was found to be 0.917 in the test with MPS-1-IN-1; 0.803 with (5Z)-7-Oxozeaenol; 0.149 in the test with Thapsigargin; 0.862 with GSK269962A; 0.975 with Zibotentan; 0.981 with ABT-888. For the same cell line, the IC50 with KU-55933 is greater than 10 µM; in the test with ABT-869, greater than 1.02 µM; with CP466722, 4.16 µM; in the test with QL-X-138, 4.5 µM; in the test with CHIR-99021 (setting [1]) it was greater than 2.56 µM; with CHIR-99021 (setting [2]), greater than 10 µM. Moreover, the IC50 in the test with MPS-1-IN-1 is greater than 20 µM; with (5Z)-7-Oxozeaenol, 6.5 µM; with Thapsigargin, less than 0.002 µM; in the test with GSK269962A it was greater than 5 µM; in the test with Zibotentan, greater than 20 µM; with ABT-888, greater than 5 µM.

On to SNU-387 (liver, adherent), for which the AUC with KU-55933 amounted to 0.947; in the test with ABT-869, 0.967; with CP466722, 0.6; with QL-X-138 it was 0.63; with CHIR-99021 (setting [1]) it was 0.905; with CHIR-99021 (setting [2]), 0.899. In addition, the AUC in the test with MPS-1-IN-1 was found to be 0.852; in the test with (5Z)-7-Oxozeaenol, 0.816; with Thapsigargin, 0.231; with GSK269962A, 0.967; in the test with Zibotentan it was 0.973; with ABT-888 it was 0.983. Moreover, the IC50 with KU-55933 was greater than 10 µM; with ABT-869 it was greater than 1.02 µM; with CP466722 it was 1.95 µM; in the test with QL-X-138, 1.54 µM; in the test with CHIR-99021 (setting [1]), greater than 2.56 µM; in the test with CHIR-99021 (setting [2]), greater than 10 µM. Moreover, the IC50 with MPS-1-IN-1 is 18.9 µM; in the test with (5Z)-7-Oxozeaenol, 6.54 µM; in the test with Thapsigargin it was 0.00464 µM; with GSK269962A, greater than 5 µM; in the test with Zibotentan it was greater than 20 µM; in the test with ABT-888 it was greater than 5 µM.
